Over roughly 110,000 compounds, “z-score” has its median near -0.1; the highest 2% begin near 2. This is one part of the list.

This assay addresses Metabotropic glutamate receptor 8 (Rattus norvegicus) (UniProt P70579). Put plainly: mGluR8 Gi/Go-coupled signaling modulation – cell-based, rat, thallium flux, HTS, primary screen (AID 488969). The settings on record: HEK293 rat mGluR8, GIRK (G protein-gated inwardly rectifying potassium channel) thallium flux, FluoZin2; at 10 µM; stronger effect = higher value; submaximal glutamate (EC20) added with thallium.
Sequence of UniProt P70579 (P70579 whole entry, looked up): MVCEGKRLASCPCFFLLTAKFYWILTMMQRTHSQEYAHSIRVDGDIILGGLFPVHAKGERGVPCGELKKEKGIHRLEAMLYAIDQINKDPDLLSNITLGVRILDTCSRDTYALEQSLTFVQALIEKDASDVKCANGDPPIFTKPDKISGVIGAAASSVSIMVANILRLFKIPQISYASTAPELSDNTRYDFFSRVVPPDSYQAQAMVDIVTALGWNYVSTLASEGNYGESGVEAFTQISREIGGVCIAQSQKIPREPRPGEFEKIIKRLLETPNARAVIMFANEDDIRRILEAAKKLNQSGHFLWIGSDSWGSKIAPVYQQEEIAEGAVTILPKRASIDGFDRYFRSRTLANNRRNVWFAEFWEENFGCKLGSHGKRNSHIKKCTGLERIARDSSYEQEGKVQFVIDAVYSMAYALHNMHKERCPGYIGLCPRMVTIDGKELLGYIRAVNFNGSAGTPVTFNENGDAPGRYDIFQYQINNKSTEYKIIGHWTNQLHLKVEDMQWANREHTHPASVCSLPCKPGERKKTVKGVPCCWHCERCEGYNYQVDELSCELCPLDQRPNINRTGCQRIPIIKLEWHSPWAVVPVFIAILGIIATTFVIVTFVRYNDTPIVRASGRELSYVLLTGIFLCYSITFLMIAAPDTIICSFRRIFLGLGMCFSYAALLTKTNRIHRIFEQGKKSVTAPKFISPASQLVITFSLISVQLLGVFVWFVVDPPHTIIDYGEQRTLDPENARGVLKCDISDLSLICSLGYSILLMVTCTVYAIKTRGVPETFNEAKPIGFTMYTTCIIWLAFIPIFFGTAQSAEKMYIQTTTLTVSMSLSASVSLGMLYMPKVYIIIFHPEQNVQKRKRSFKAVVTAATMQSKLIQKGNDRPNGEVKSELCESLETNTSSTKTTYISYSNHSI
`Cc1ccc(C(=O)NN2C(=O)C3C4c5ccccc5C(c5ccccc54)[C@@H]3C2=O)cc1` (stereo not given in full) came in with a z-score of 0.199. Then `CNc1cc([N+](=O)[O-])ccc1N/C=C/C(=O)c1ccc2c(c1)OCO2`, with 0.169; and `O=C(Cn1c(=S)nc2ccccn21)N1CCc2ccccc2C1`, with -0.216; and `Cc1ccc2[nH]c3c(=O)n(CCN4CCOCC4)cnc3c2c1`, with 0.0978. As for `CCn1nc(C)c(/C=N/NC(=O)c2ccoc2C)c1C`, the figure is -0.358; as for `O=C(CC1Nc2ccccc2NC1=O)NCc1cccnc1` (stereo not given), 0.517.

Turning to `CCC(C)NC(=O)Cc1cn(C)c2ccccc12` (stereo not given), the z-score was -0.269. Then `O=c1c2ccccc2c(C=Nc2ccc(Cl)cn2)c(O)n1-c1cc(Cl)ccc1N1CCOCC1`, with -0.0753; and `CCCCC(=O)Nc1cc([N+](=O)[O-])ccc1Cl`, with -0.0694. Then `O=C(CN1C(=O)C2C3C=CC(C3)C2C1=O)Nc1nc(-c2ccccn2)cs1` (stereo not given), with -0.0039. Then `CN(C)CCCNC(=O)c1cc(S(=O)(=O)N2CCOCC2)ccc1F`, with 0.00737; and `O=C1N(c2ccccc2)C2CS(=O)(=O)CC2N1c1ccc(Br)cc1` (stereo not given), with 0.00782; and `COc1ccc2nc(Nc3nc4cc5c(cc4s3)OCO5)sc2c1`, with 0.175.

For `COc1ccc(C(=O)Nc2nc3nccc(-c4ccccc4)n3n2)cc1`, the z-score is -0.428.

On to `C/C(=N\NC(=O)c1ccc(CN(C)S(=O)(=O)c2ccc(C)cc2)cc1)c1ccc(OC(F)F)cc1`, for which the z-score is -0.0384.

In the case of `Cc1noc(C)c1COc1ccc(C(=O)OCC(=O)Nc2cccc(S(=O)(=O)N3CCOCC3)c2)cc1`, the z-score is -0.17. As for `COc1ccc(S(=O)(=O)N2CC(C(=O)O)Oc3ccc(CC(=O)O)cc32)cc1` (stereo not given), the figure is -0.188. With `O=C(CSc1nnc(-c2ccccc2)n1C1CCCCC1)Nc1ccc(S(=O)(=O)Nc2ccccn2)cc1`, the z-score is -1.32.

The molecule `CCC(=O)Nc1cc2c(C)cc(=O)oc2cc1C` yielded a z-score of -0.152. As for `COC(=O)Cc1cc(=O)n(-c2nc3ccccc3[nH]2)[nH]1`, the figure is -0.535; as for `CCOC(=O)/C=C1\SCC(=O)N1CC(=O)NC(C)c1ccc(F)cc1` (stereo not given), -0.447; as for `COc1ccc(NC(=S)NCc2ccco2)cc1`, -0.0213. As for `C(#CCN1CCOCC1)COCCCOC(c1ccccc1)c1ccccc1`, the figure is -0.141; as for `Clc1ccc(-c2nnc(CSc3nnc(-c4cccs4)o3)o2)cc1`, -0.515; as for `O=C(NC1CCCCC1)c1ccccc1NC(=O)C1CC(=O)N(c2ccccc2)C1` (stereo not given), -0.541. Take `Cn1c(=O)cc(N2CCCCC2)[nH]c1=O`: the z-score worked out at 0.00323. Then `O=C(O)C1Nc2c(O)cccc2C2C=CCC12` (stereo not given), with 0.906.

Regarding `CCOc1ccc(N2CC(C(=O)N3CCc4ccccc4C3)CC2=O)cc1` (stereo not given), the z-score was -0.119. As for `NC(=O)C1(N2CCCCC2)CCN(C2CC(=O)N(CCc3ccccc3)C2=O)CC1` (stereo not given), the figure is -0.162.

In turn, `Cc1cccc(N2CCN(C(c3ccccc3)c3nnnn3C(C)(C)C)CC2)c1C` (stereo not given) gave a z-score of -0.194. `Cc1ccccc1Cn1c([N+](=O)[O-])cnc1C` yielded a z-score of -0.383. With `CCOC(=O)/C(C#N)=C\c1ccc2c(c1)OCO2`, the z-score is -0.308.

Regarding `CCOc1ccc(C(C)(C)C)cc1S(=O)(=O)n1nc(C)cc1C`, the z-score was -0.716. Then `O=C(NN=C1CCCCCC1)NC1CCCCC1`, with -0.019. For the molecule `COc1ccc(CN(C(=O)/C=C/C(=O)c2ccc(OC)cc2O)C(C(=O)NC2CCCCC2)c2ccncc2)cc1` (stereo not given), the z-score is -0.182. Turning to `COCc1nnc(NS(=O)(=O)c2ccc(Br)cc2)s1`, the z-score is -0.387.

The molecule `CC(=O)Nc1ccc(OC(=O)c2c(-c3ccccc3Cl)noc2C)cc1` displayed a z-score of -0.313. As for `Cc1ccc(C(=O)C(C)Oc2cccc(NC(=O)c3ccco3)c2)cc1` (stereo not given), the figure is -1.92; as for `O=C(Nc1nnc(CSCc2ccccc2F)s1)c1cccc([N+](=O)[O-])c1`, 0.24. As for `O=S(=O)(CCc1nc2ccccc2s1)c1ccc(Cl)cc1`, the figure is -0.394.

Turning to `CCn1c(SCc2nc3sc(C(=O)O)c(C)c3c(=O)[nH]2)nc2ccccc21`, the z-score was -0.449. Then `O=C(NC1CCCCC1)N1CCN(Cc2nc3ccccc3c(=O)[nH]2)CC1`, with 0.235; and `COc1ccc(OC)c(NC(=O)C2CCC(CNc3c(N4CCC(C)CC4)c(=O)c3=O)CC2)c1` (stereo not given), with -0.749. As for `Cc1ccc(-c2nnc(SCC(=O)N/N=C/c3ccc(C)s3)n2-c2ccc(C)cc2)cc1`, the figure is -0.0175.

`CCOC(=O)c1cccc(NC2c3ccccc3C(=O)N2Cc2ccco2)c1` (stereo not given) came in with a z-score of -0.749. As for `CC(=O)CC1(O)C(=O)N(Cc2ccccc2)c2ccccc21` (stereo not given), the figure is 0.034; as for `CCCCCNC(=O)c1ccc2c(=O)n(CCOC)c(=O)[nH]c2c1`, 0.336. As for `COC(=O)C1=C(N)Oc2cc(C)n(Cc3ccco3)c(=O)c2C1c1cccc(Cl)c1` (stereo not given), the figure is 0.443; as for `O=C(Cn1cnc([N+](=O)[O-])n1)NCc1ccccc1`, 0.217. As for `CCCN1C(=O)/C(=C/c2c(NCCCOC(C)C)nc3c(C)cccn3c2=O)SC1=S`, the figure is 0.133; as for `Cc1cc(F)ccc1NCc1cc2c(cc1[N+](=O)[O-])OCO2`, -0.139. `Cn1c2c(c(=O)n(C)c1=O)CN(CCc1ccccc1)CN2`: the z-score is -0.0887. In the case of `C=CCN1C(=O)C(Cc2ccc(Br)cc2)S/C1=N\N=C\c1ccco1` (stereo not given), the z-score was -0.00121.

On to `COc1ccc(CC(=O)NC(C)c2nnc(SCC(=O)c3ccc(Br)cc3)n2C)cc1` (stereo not given), for which the z-score is -0.222. Then `Cc1ccc(-n2c(=O)[nH]cc(C(=O)Nc3ccc4c(c3)OCCO4)c2=O)cc1`, with 0.249. Then `CC(=O)Nc1ccc(OCC(O)CN2CCCCC2C)cc1` (stereo not given), with -0.276; and `N#C/C(=C/c1ccc(Br)o1)C(N)=O`, with -0.516. Then `O=C(Oc1ccccc1/C=C\C(=O)c1cc2ccccc2o1)c1cccc(F)c1`, with 1.04.

For the molecule `N#Cc1c(N2CCOCC2)nc(N2CCCCC2)c2c1CCN(C1CCCCC1)C2`, the z-score is -0.913. Then `COc1ccc(CCNS(=O)(=O)c2ccc3c(c2)CCN3C(=O)C2CC2)cc1OC`, with -0.0638. Then `O=C(NCCCN1CCCC1=O)Nc1ccc(F)c(Cl)c1`, with -0.0666; and `Cc1cccc(NC(=O)CCN2CCOCC2)c1`, with -0.113; and `O=C(O)c1cc(C2CC2)nn1-c1ccccc1`, with -0.0368. As for `CCN(CC)CCC(=O)NC(C)(C)Cc1ccc(O)cc1`, the figure is -1.17; as for `COc1ccccc1NC(=S)NC1CCC(CC2CCC(NC(=S)Nc3ccccc3OC)CC2)CC1` (stereo not given), -0.0995; as for `CSc1ccccc1C(=O)NCc1ccc2c(c1)OCO2`, -0.296. For the molecule `O=C(Nc1cc2c(oc1=O)CCCC2=O)c1ccc(Cl)cc1`, the z-score was -0.285. Then `Cc1cc(C)nc(NC(=O)C(C)N2C(=O)c3ccccc3C2=O)n1` (stereo not given), with -0.586. Then `CCN1C/C(=C\c2cccc([N+](=O)[O-])c2)C(=O)/C(=C/c2cccc([N+](=O)[O-])c2)C1`, with -0.328; and `Cc1cc(NCCN2CCOCC2)n2c(nc3ccccc32)c1C#N`, with -0.377. Then `C=CCn1c(C)cc(C(=O)CSc2nc3ccccc3o2)c1C`, with 0.852. Molecule `CN(c1ccccc1)S(=O)(=O)c1ccc(C(=O)OCC(=O)NCc2ccco2)cc1` showed a z-score of -0.166.

As to `C/C(=N\NC(=O)C1COc2ccccc2O1)c1ccccn1` (stereo not given), the z-score was -0.0325. Then `CNC(=O)COC(=O)c1ccc(NC(=O)CC#N)cc1`, with 0.11; and `NC(=O)c1nn(-c2ccccc2)nc1NC(=O)Cn1nnc(-c2ccccc2)n1`, with 0.0782; and `COc1cc(SC#N)ccc1N=Cc1c(C)[nH]n(-c2cccc3ccccc23)c1=O`, with -0.32. For the molecule `Cc1cc(C)nc(SCC(=O)N/N=C/c2cccc([N+](=O)[O-])c2)n1`, the z-score is -0.235. `CCOc1ccccc1N(CC(=O)O)S(=O)(=O)c1ccc(C)cc1` registered a z-score of -0.137. `Cc1cccc(NC(=O)CC2NC3CCCCC3NC2=O)c1` (stereo not given): the z-score is -0.174. Then `O=C(NC1CCCC1)C(c1ccccc1)N(Cc1ccco1)C(=O)Cc1cccs1` (stereo not given), with -1.45. As for `COC(=O)c1c(C)noc1-c1cc(C)on1`, the figure is -0.229. `CCOP(=O)(OCC)C(NC(=O)C(F)(F)F)c1ccccc1` (stereo not given) came in with a z-score of -0.0338. Then `Cc1ccc(-c2ccc(=O)n(CCC(=O)NCCN3CCCCC3C)n2)cc1` (stereo not given), with -0.33. Then `C=CCn1c(SCC(=O)c2ccc(CNC(C)=O)o2)nc2scc(C3CC3)c2c1=O`, with -0.393; and `O=C(Nc1nnc(-c2ccncc2)s1)C1CCCO1` (stereo not given), with 0.264.

In the case of `Oc1ccccc1NCC(O)Cn1ccc2ccccc21` (stereo not given), the z-score is -0.42. The molecule `CN(C)c1nc(N)nc(Nc2ccccc2C#N)n1` had a z-score of -0.0953. Then `O=[N+]([O-])c1ccc(NCCNc2ccc(Cl)nn2)cc1`, with -0.0551; and `CC(C)C(NC(=O)C1CCCCC1)C(=O)Nc1ccccn1` (stereo not given), with -0.198. Then `COc1ccc(C(=O)Nc2sc(C)c(C)c2CN2CC(C)OC(C)C2)cc1` (stereo not given), with 1.5.

Turning to `CCOC(=O)COc1ccc(S(=O)(=O)Nc2ccc3c(c2)OCCO3)cc1`, the z-score was 0.286. As for `Cc1cc(C)n(C(=O)CCC(=O)Nc2ccc(C)c(C)c2)n1`, the figure is -0.0686; as for `CCCC(=O)Nc1cc(OC)c(OC)cc1C(=O)O`, -0.294; as for `Cn1nnc2sc3c(c2c1=O)CCCC3`, -0.875.

In turn, `Cc1nn(C(C)(C)C)c(OC(=O)c2cccs2)c1S(=O)(=O)c1ccccc1` displayed a z-score of -0.214. Then `CN(C(=O)c1coc(=O)c2ccccc12)c1ccc(F)cc1`, with -0.51; and `CCOC(=O)c1ccccc1NC(=O)c1ccc(NS(C)(=O)=O)cc1`, with -0.284; and `OCCNc1nc2ccccc2n1-c1ccccc1`, with -0.0406.

As for `Cc1nnsc1C(=O)Nc1cc(Cl)ccc1Cl`, the z-score was -0.131. `COc1ccc2nc(/N=C(\N)NC(=O)C(C)(C)C)nc(C)c2c1` registered a z-score of -0.613. Then `CCOCCCNc1nc2c(c(=O)[nH]c(=O)n2C)n1CCCc1ccccc1`, with -0.17; and `O=S(=O)(c1ccccc1Cl)N1CCCC(c2nc(-c3cccnc3)no2)C1` (stereo not given), with 2.62. Then `O=C(c1nn(Cc2ccccc2)c(=O)c2ccccc12)N1CCc2ccccc2C1`, with -0.399; and `Cn1c(Cn2c(C(F)(F)F)nc3ccccc32)nc2ccccc21`, with -0.47. The molecule `CN(C)C(/C=C/Nc1ccc(C#N)cc1)=C(C#N)C#N` returned a z-score of -0.302.

`COc1cccc(/C(O)=C2/C(=O)C(=O)N(Cc3ccco3)C2c2ccncc2)c1` (stereo not given) yielded a z-score of -0.192. Regarding `CC(C)NS(=O)(=O)c1ccc(OCC(=O)NCc2ccc3c(c2)OCO3)c(Cl)c1`, the z-score is -0.238.

In turn, `COc1cc(S(=O)(=O)N2CCN(C)CC2)c(OC)cc1Cl` yielded a z-score of -0.0772. Then `Cc1ccc(NC(=O)COc2ccc(/C=N/NC(=O)CSCc3ccccc3)cc2)cc1`, with -0.271; and `COc1nc(N)nc(NC23CC4CC(CC(C4)C2)C3)n1`, with 0.314.
